Measured values from PubChem BioAssay AID588453 (National Center for Advancing Translational Sciences (NCATS), 2011).
The campaign covered roughly 390,000 compounds. About 4,000 (1%) were called active. The shares of active, inactive and inconclusive entries below differ from those in the screen. Calls follow the shape of the dose curve; as a rule, active = well fitted inhibition curve with a large enough effect; inconclusive = small, poorly fitted or top-dose-only effect; inactive = no such curve, though single readings can be large or run the other way. Where the call is inconclusive, the potency comes from a doubtful curve fit.

What follows are compounds tested against Thioredoxin reductase 1, cytoplasmic (Rattus norvegicus) (UniProt O89049) (assay: qHTS Assay for Inhibitors of Mammalian Selenoprotein Thioredoxin Reductase 1 (TrxR1): qHTS). Details: recombinant rTrxR1, NADPH fluorescence consumption, selenite substrate; series mostly up to 114 µM; activity change, negative = inhibition: at the top concentration.
Outline: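 Rat TrxR1 (90 nM in the dispensed reagent) was pre-reduced with 400 uM NADPH for 5 min at room temperature, then incubated with compound for 15 min. After 400 uM selenite was added, NADPH fluorescence (Ex 340/Em 450 nm) was followed for 8 min.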
% is scaled to controls: 0 for no effect and ±100 for the full control effect; potency is read from the fitted curve at half-maximal effect; tags tell the direction and shape of the fitted curve.
Also: nearly all actives have a fitted effect of over 65% in size.

UniProt O89049, sequence (O89049 whole entry, looked up): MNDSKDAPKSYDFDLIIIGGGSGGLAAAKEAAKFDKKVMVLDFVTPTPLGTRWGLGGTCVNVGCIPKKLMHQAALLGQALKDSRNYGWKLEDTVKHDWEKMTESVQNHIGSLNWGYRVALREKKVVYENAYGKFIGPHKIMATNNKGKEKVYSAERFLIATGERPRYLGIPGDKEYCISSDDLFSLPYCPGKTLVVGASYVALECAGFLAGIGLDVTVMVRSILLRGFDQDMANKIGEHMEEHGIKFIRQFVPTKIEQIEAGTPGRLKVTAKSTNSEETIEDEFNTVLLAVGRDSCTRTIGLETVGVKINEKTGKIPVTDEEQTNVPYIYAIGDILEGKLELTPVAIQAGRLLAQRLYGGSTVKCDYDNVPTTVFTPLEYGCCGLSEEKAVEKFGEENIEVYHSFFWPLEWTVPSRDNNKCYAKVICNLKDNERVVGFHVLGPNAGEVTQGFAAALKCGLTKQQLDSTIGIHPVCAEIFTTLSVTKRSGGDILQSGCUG

SMILES | Potency | activity change, negative = inhibition
O=[N+]([O-])c1cccc(-c2n[nH]c(=S)n2Cc2ccccc2)c1 | inconclusive: 56.2 µM [inhibitor, partial curve] | 
CC1CCCC/C1=N\NC(=S)Nc1cccnc1 (stereo not given) | inconclusive: 39.8 µM [inhibitor, partial curve, poor fit] | 
CC1=C(C(=O)NCc2ccco2)C2(CCC(C)CC2)OC1=O (stereo not given) | inconclusive: 15.8 µM [inhibitor, partial curve, poor fit] | 
COc1ccccc1CN(Cc1cc2cc3c(cc2[nH]c1=O)OCCO3)Cc1nnnn1Cc1ccco1 | active: 5.62 µM | 
Cc1cccc(-c2nc(CS(=O)CC(=O)NCc3ccco3)c(C)o2)c1 (stereo not given) | inconclusive: 56.2 µM [inhibitor, single point] | 
Cc1ccc(-c2nnc3c(C(F)(F)F)nc4ccccc4n23)cc1 |  | inactive: -11.1%
Cc1cc(C)cc(NC(=O)C2CCCN(c3nnc(-n4c(C)ccc4C)s3)C2)c1 (stereo not given) | inconclusive: 15.8 µM [inhibitor, full curve, poor fit] | 
O=[N+]([O-])c1cccc(/C=N/n2c(C3CCCCC3)n[nH]c2=S)c1 |  | inactive: 3.11%
CC(=O)NN1C(=O)/C(=C/c2ccc(Br)o2)SC1=S | active: 25.1 µM | 
CN(C1CCCCC1)S(=O)(=O)c1ccc2c(c1)CCC(=O)N2 | inconclusive: 15.8 µM [inhibitor, partial curve] | 
Cc1ccc(NC(=S)N/N=C/c2ccc(OCCC(C)C)cc2)c(C)c1 |  | inactive: 1.43%
CCOC(=O)Cc1csc(NC(=O)/C=C/c2ccc(Br)o2)n1 | inconclusive: 70.8 µM [inhibitor, single point] | 
O=C(O)/C=C/C(=O)Nc1ccc(C2(c3ccc(NC(=O)/C=C/C(=O)O)cc3)c3ccccc3-c3ccccc32)cc1 |  | inactive: -3.33%
O=C(/C=C/c1ccccc1O)c1ccc(Cl)cc1 | inconclusive: 12.6 µM [inhibitor, single point] | 
CN(C)c1ccc(NC(=S)c2ccccn2)cc1 |  | inactive: 16.9% [at 57.1 µM]
CC1=CC(=O)C=C(C)C1=NOc1ccc([N+](=O)[O-])cc1 | inconclusive: 8.91 µM [inhibitor, full curve] | 
COc1ccc(NC(=S)NC(=O)/C=C/c2ccco2)c(OC)c1 | inconclusive: 56.2 µM [inhibitor, partial curve, poor fit] | 
O=C(COC(=O)c1cc(-c2cccs2)nc2ccccc12)NCc1ccco1 | inconclusive: 20 µM [inhibitor, single point] | 
CC(=O)OCC1=C(C(=O)O)N2C(=O)C(NC(=O)COc3ccc(F)cc3)C2SC1 (stereo not given) | inconclusive: 22.4 µM [inhibitor, single point] | 
COc1ccccc1OCCn1c(=S)[nH]c2ccccc21 |  | inactive: 2.08% [at 57.1 µM]
COc1ccc(C(NC(=O)/C=C\c2ccco2)c2ccc(OC)c(OC)c2)cc1 (stereo not given) | active: 8.91 µM | 
Cc1ccccc1-c1nnn(CC(=O)N2CCN(C(=O)c3ccco3)CC2)n1 |  | inactive: -14.9%
CCOc1ccc(N(CC(=O)NC2CCCCC2)S(=O)(=O)c2c(C)noc2C)cc1 |  | inactive: 20.3%

SMILES | Potency | activity change, negative = inhibition
CC(C)NC(=O)c1onc(CSc2nc3ccccc3[nH]2)c1C(=O)NC(C)C | inconclusive: 39.8 µM [inhibitor, single point] | 
NC(=O)C(CC(=O)O)NC(=O)[C@@H]1CCCNc2c(I)cc([N+](=O)[O-])cc2C(=O)N[C@@H](CO)C(=O)N[C@@H](Cc2ccc(O)cc2)C(=O)N1 (stereo not given in full) | inconclusive: 79.4 µM [inhibitor, partial curve, poor fit] | 
Fc1ccc(-c2nc3nc4ccccc4nc3n2Cc2ccco2)cc1 | inconclusive: 22.4 µM [inhibitor, single point] | 
CCCN1C(=O)c2[nH]nc(-c3ccccc3O)c2C1c1ccc(OCc2ccccc2)c(OCC)c1 (stereo not given) |  | inactive: 21.2%
Cc1nc2c(=O)[nH]c(=S)[nH]c2[nH]c1=O | inconclusive: 15.8 µM [inhibitor, partial curve, poor fit] | 
CN(C)c1ccc(C(c2ccc(N(C)C)cc2)c2ccc([N+](=O)[O-])cc2)cc1 |  | inactive: 21.8%
COc1cc(C(C)=O)ccc1OCc1cc(C(=O)N2CCSCC2)no1 | inconclusive: 56.2 µM [inhibitor, single point] | 
Cc1cc(C)cc(C(=O)NCC(=O)OCC(=O)NCc2ccco2)c1 | inconclusive: 35.5 µM [inhibitor, partial curve] | 
Cc1c(-c2ccccc2)cn2c1-c1ccc(C)n1CC2 | inconclusive: 20 µM [inhibitor, single point] | 
CCN(CC)CCN(C(=O)CCS(=O)(=O)c1ccccc1)c1nc2c(C)cc(C)cc2s1 | inconclusive: 14.1 µM [inhibitor, full curve] | 
CC(=O)N1c2c(cc(Br)cc2S(=O)(=O)N2CCN(C(=O)c3ccco3)CC2)CC1C (stereo not given) |  | inactive: -2.3% [at 57.1 µM]
COc1ccc2c(CNCc3ccc(C)o3)c(C(=O)O)n(Cc3ccccc3C)c2c1 |  | inactive: 5.06%
COc1cc([N+](=O)[O-])cc(/C=N/NC(=O)c2ccc(C)nc2)c1O | inconclusive: 79.4 µM [inhibitor, partial curve, poor fit] | 
NCCCn1c(C(=O)c2cc(Cl)c(N)c(Cl)c2)c2ccc([N+](=O)[O-])cc2[n+]1[O-] | inconclusive: 35.5 µM [inhibitor, partial curve] | 
NC(=O)c1cccc2c1-c1ccccc1/C2=N/NC(N)=S |  | inactive: -18.8%
Cc1ccc2sc(N(Cc3cccnc3)C(=O)CCOc3ccccc3)nc2c1C | inconclusive: 25.1 µM [inhibitor, partial curve] | 
Cc1ccccc1-c1nc(CS(=O)CC(=O)N2CCN(c3cc(Cl)ccc3C)CC2)c(C)o1 (stereo not given) |  | inactive: 14.1%
O=C1/C(=C/c2ccccc2)Nc2ccccc21 | inconclusive: 79.4 µM [inhibitor, single point] | 
O=C(O)C1CC(O)CN1S(=O)(=O)c1cccs1 (stereo not given) |  | inactive: 22.8%
CCOc1cccc(=O)c2c(C)n(C)c(C)c12 | inconclusive: 39.8 µM [inhibitor, partial curve, poor fit] | 
Cc1cc(=O)oc2cc(OCC(=O)NCc3ccccn3)ccc12 |  | inactive: -14.6%
COc1ccc(N2CCN(C(CNC(=O)C(=O)NCCC3=CCCCC3)c3ccco3)CC2)cc1 (stereo not given) |  | inactive: -1.53%
